# Experimental data reported in article PMC12136788.
# Positions count from the first letter of the chain named. The list shows a part of the results.
# T1: UNK ZnF1-3 (human, UniProt Q9C0B0 31-174)
# T1 sequence: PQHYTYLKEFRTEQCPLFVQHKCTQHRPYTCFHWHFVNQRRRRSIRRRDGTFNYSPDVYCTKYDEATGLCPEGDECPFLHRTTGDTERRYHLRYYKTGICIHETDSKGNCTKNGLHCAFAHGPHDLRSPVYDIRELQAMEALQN
# B1: chr6:41757443:41757444:+_ENSG00000214736_ENST00000398881|hu_mus|hu_hu_hu_mus_False|88_88 (ssRNA)
# RNA: GGGAGUUCUACAGUCCGACGAUCGAACCGUGCAGAGGCAACAUCUCGGAAUUCUGCGGGGGAUGGGGGGGCAGUGGGGGGGGGUUCAGGCAAGGAGAGGGAGUCAACUUCAGCUGCCACUCAGGUAGGAUCUUGUGGUCACAGCAACAGAGGAUUGAGCAUCA
# B2: chr7:75932113:75932114:+_ENSG00000106211_ENST00000248553|hu_hu|hu_hu_hu_mus_False|1_38 (ssRNA)
# RNA: GGGAGUUCUACAGUCCGACGAUCCUGCGACCACUCAUCGGGCAACCGGGGCACCCCGAAAGCUUGAUCGAAGAGGCGGCUGUGUGCAGGGUACCAGCGGAAGGGGUGUUCCCAGCUCGGGCUCCGCAGCAGCGAGAGGACGCGCAACAGAGGAUUGAGCAUCA
# B3: chr7:140404665:140404666:+_ENSG00000090266_ENST00000247866|hu_hu|hu_hu_hu_mus_False|8_28 (ssRNA)
# RNA: GGGAGUUCUACAGUCCGACGAUCUGCUCCUACUCGUCCAGAGAGUUUACAGUGUCAGUCCUCGUCAUCAGGAGGGAUUCCCAGUUCUUCAUCUGUCCACUGUGAAGGAUCAGGAUAUGAAAAGUGACCCAGCACCUCAUCCGACAACAGAGGAUUGAGCAUCA
# B4: 22795644_22795764_1879_ncRNA_ENSMUSG00000026784_ENSMUST00000139472|mouse|control|control (ssRNA)
# RNA: GGGAGUUCUACAGUCCGACGAUCUAUUUGUGUAAUGGCUUUACAUGUGGGCAUUAACAGUGUAAACAAUACCACAUAUAACCAUCAGGAUACCUCGAUUAGAAUUUAUAGGACUAUAAUGACACUGGUUUAAUUACAUUUAAACAACAGAGGAUUGAGCAUCA
# B5: chr22:19452774:19452775:-_ENSG00000070010_ENST00000399523|hu_hu|hu_hu_hu_mus_False|18_18 (ssRNA)
# RNA: GGGAGUUCUACAGUCCGACGAUCCUUCUCAUUGUAGUUGAUAGCAAUCACAUCUCCAGUCGUCAGACAGGCGAAGUUUCUCAAUGCAUUUUCUAAUACCGCUUUAGGGUUGGUAAUGUCCAGGAAGUCUGGGCUCUGAGGCUGCAACAGAGGAUUGAGCAUCA
# B6: chr10:93459826:93459827:-_ENSMUSG00000036099_ENSMUST00000119818|mus_mus|FALSE|FALSE (ssRNA)
# RNA: GGGAGUUCUACAGUCCGACGAUCUCCCCACACCAGCCAGGAGGACACAAUCCAGCACGUGGGAAACAUGAUGAGCAAACUAAUGAAGGCAAACAGCAGCGAGACAUCCCAAGUGUUCGGGGUUGCCAGGGAGCAGAGCGUUGGCAACAGAGGAUUGAGCAUCA
# B7: chr7:140404665:140404666:+_ENSG00000090266_ENST00000247866|hu_hu|hu_hu_hu_mus_False|38_58 (ssRNA)
# RNA: B3 RNA with U78A, C81U, G83A, U102G, A111U, C135A, U136G
# B8: 179984994_179989092_2541_3pUTR_ENSG00000135837_ENST00000367607|human|control|control (ssRNA)
# RNA: GGGAGUUCUACAGUCCGACGAUCAAGUCUUUUCUUGCAAGAGGCUGUGGAGGUUCUGAGAGAGACAUGUCACUACUGGAAGAUGCACUUGGGGGACGUUCCUGUACUUUGUUUUCUUUGUCAGAUUCUCCAGAUGGCUGAUACCAACAGAGGAUUGAGCAUCA
# B9: chr20:7962013:7962014:-_ENSG00000125827_ENST00000246024|hu_mus|motif|central (ssRNA)
# RNA: GGGAGUUCUACAGUCCGACGAUCGGGUUCAGAAAAACAAAGGAUGUGGCUGGAGAAACUCUUGAAGAAGUUAUCCUGUAACGGUAGGACCCAAAAAAGAUGUUGCUUGUACCUGUCCUAUGAAACUGCCACUGCCUUUUGAAUCAACAGAGGAUUGAGCAUCA
# B10: chr21:34877999:34878000:-_ENSG00000159131_ENST00000381815|hu_hu|FALSE|FALSE (ssRNA)
# RNA: GGGAGUUCUACAGUCCGACGAUCGUCAAUUGCACUGUCAAAUUCUACACGAUUUUUAUACAGUUUAUGAUUAAUUACUCUAGUGGGAAUACCAGCUCUUUCCGCUUUAUCUAACCCAGCUACUGCGGCUUUGUUGGAGAUAACCAACAGAGGAUUGAGCAUCA
# B11: chrX:67713009:67713010:-_ENSMUSG00000073139_ENSMUST00000101506|mus_mus|motif|central (ssRNA)
# RNA: GGGAGUUCUACAGUCCGACGAUCUACAGGAGCAAAAAAUAGUGGAUUUAACCACAUUUUUAAGAGACCAAACAAAAAAUGCGGCACUGCUUCCCCUUUCUUCUGAAACAGAACAGGCUCACUGGAGGCCUGUGCCAAGGGUAGCAACAGAGGAUUGAGCAUCA
# B12: 159436158_159437584_99_3pUTR_ENSG00000113312_ENST00000231238|human|control|control (ssRNA)
# RNA: GGGAGUUCUACAGUCCGACGAUCCAUUUAACAGAUCCUCUGGAACCCCACAGUUCUCUGACUUCUCCCCCAUGCUGCCCAGUGAGGGAGGUGACGCUAAAGAACCUCACAGCUUCUCCGGUCUCCACCUUCUUAGCCUCUGAGCAACAGAGGAUUGAGCAUCA
# B13: chr4:95690885:95690886:+_ENSMUSG00000028572_ENSMUST00000156910|mus_mus|mus_mus_mus_hu_False|1_58 (ssRNA)
# RNA: GGGAGUUCUACAGUCCGACGAUCUUUAGAAAAUGUUAAAUACCAUGCUAAAAUAUUUUCAAAGGCUUAUUUUAUUUUACUAAAAGACACAGGCAAGCAGACACUACAAGAAUAUAUGAAAAUGAAACUCAACAAUAAAAUGUACAACAGAGGAUUGAGCAUCA
# B14: chr7:141438946:141438947:+_ENSG00000106028_ENST00000265304|hu_mus|hu_hu_hu_mus_True|28_108 (ssRNA)
# RNA: GGGAGUUCUACAGUCCGACGAUCGACUACCUGUAAUUAACACAGGUCUUCGAAACAUGGCUUCUGUUUUUCUUACAACCUAAUCUUUAGGCUUUUCCUAAAGGAAAAACCCGAGCAAGAAAAAUGAUAAAUCAAGAAACUACACAACAGAGGAUUGAGCAUCA
# B15: chr1:163112212:163112213:-_ENSG00000143248_ENST00000313961|hu_mus|FALSE|FALSE (ssRNA)
# RNA: GGGAGUUCUACAGUCCGACGAUCUUUUAUUAUCAGUAAGAGUGAGUUACAUACUAGGCAAAGUAUUGGAUACAAUAAUCAGGAAACAAACACUAUUGGUCCAGAAUUUAAAACUUUAUGAGCGAAGUGCUGGCACAGGACUUACAACAGAGGAUUGAGCAUCA
# B16: 74054674_74055216_553_CDS_ENSG00000164347_ENST00000509430|human|control|control (ssRNA)
# RNA: GGGAGUUCUACAGUCCGACGAUCUCCCAGUGAUCUUGUAUAUCCGGAAUAGUACAAUAUUCUUUCUGUGGUGGUAGUUUUGCCUGCAUCAAUAUGAGCCAUAAUUCCAAUAUUACGGAUUUUAGCUAUGGGAGGAUUGAUGAUCAACAGAGGAUUGAGCAUCA
# B17: chr2:202488911:202488912:-_ENSG00000155755_ENST00000286196|hu_mus|hu_hu_hu_mus_False|68_68 (ssRNA)
# RNA: GGGAGUUCUACAGUCCGACGAUCAUUGAAACAUUUUUCAUAAUCUCCAGUAGCAUUUCAGCAUUAUUAAUCAAAAACUCAAUUGUAAAUACAUGUAUCUUAUAAAAAUACACUUAAAAACACGAGUGGGGAGCGCAGGCGCCACAACAGAGGAUUGAGCAUCA
# B18: chr19:16452684:16452685:+_ENSMUSG00000024639_ENSMUST00000025541|perfect_dup|motif|central (ssRNA)
# RNA: GGGAGUUCUACAGUCCGACGAUCGUUUAAGAACAGAAUCACAGAGGAGUUCUGGAACCAGGGGUAGGUGAUAAUUGUUCGGAAGAGUGCUUUGCUCUCCUCCAUGCGGUUCUCAUUGUCUGACUCCACAAGAACUUGAUCAUACAACAGAGGAUUGAGCAUCA
# B19: chr17:4848066:4848067:+_ENSG00000108523_ENST00000575111|hu_hu|FALSE|FALSE (ssRNA)
# RNA: GGGAGUUCUACAGUCCGACGAUCAGUUUCUUCCUCUUGGUCUUCGUCCCCAGGACCCCGAUGAACAGGCUGCUUGCAAAUGGGGCAGGUCUUCCGGGUCUGAGUGAGCCAGGGGUCCACGCAGCGGCUGUGGUAGGCAUGAGCCAACAGAGGAUUGAGCAUCA
# B20: chr18:52893488:52893489:-_ENSG00000196628_ENST00000354452|hu_hu|motif|central (ssRNA)
# RNA: GGGAGUUCUACAGUCCGACGAUCCAUUUAGACCAUUUCAAUGGAUUUAUGGCAUUUACUCAGUGCUGAUAGGUGGAAAAACGGCUUGAACAGGGAUUUUUUUUUUUCUUAAUACAUGCCAAGAAUUGUGUGGCUGUAAAAAUACAACAGAGGAUUGAGCAUCA
# B21: chr4:25749455:25749456:-_ENSG00000091490_ENST00000264868|hu_hu|hu_hu_hu_mus_False|68_98 (ssRNA)
# RNA: GGGAGUUCUACAGUCCGACGAUCGCACUAUGACCUCCCCUAGAAAACACAGGGGGAAAAAAUGUAAACCAAUUUACAAUGUUAUCGCCUUCCCUGUGUGUGGAGUGUUUGUCUCAAGGCUCCUUCUAGCUGCUGGAUUUGGGACAACAGAGGAUUGAGCAUCA
# B22: chr2:176793893:176793894:-_ENSG00000144320_ENST00000272748|hu_hu|FALSE|FALSE (ssRNA)
# RNA: GGGAGUUCUACAGUCCGACGAUCAAAAUGAAACUGAUGCCAGAUUAUUUUCAUUUUCCUUAAUAAAAUACAAACAAGAGCACAAAAUUCACUUAUAUAUCAUCAUUUUAUACUUAUAAAUAAUGCUCAGAAUUCAAAUAGGGUCAACAGAGGAUUGAGCAUCA
# Target: T1, UNK ZnF1-3
# Assay: nsRBNS (natural sequence RNA bind-n-seq); RBNS binding buffer (assumed for nsRBNS): 25 mM Tris pH 7.5, 150 mM KCl, 3 mM MgCl2, 0.01% Triton X-100, 500 ug/ml BSA, 20 U/ml SUPERase-In, 4 C; UNK is unkempt and MSI1 is Musashi-1; names of the RNAs are library labels; protein concentration not given here; high values mean tight binding
row,Binder,binding signal [enrichment R]
1,B1,0.68
2,B2,1.01
3,B3,1.33
4,B4,0.976
5,B5,0.672
6,B6,2.18
7,B7,1.48
8,B8,0.876
9,B9,1.73
10,B10,0.69
11,B11,1.03
12,B12,0.601
13,B13,2.05
14,B14,0.365
15,B15,1.24
16,B16,1.15
17,B17,1.01
18,B18,0.827
19,B19,0.759
20,B20,1.03
21,B21,1.03
22,B22,1.52
